Source: PubChem BioAssay AID1466 (National Center for Advancing Translational Sciences (NCATS), 2008)
Among all 200,000 compounds or so, about 10 (0.005%) were called active. Inconclusive results, whose numbers are uncertain, are shown with a selection of clear calls. Calls come from the whole dose curve; as a rule, active = well fitted inhibition curve with a large enough effect; inconclusive = small, poorly fitted or top-dose-only effect, or effect the other way, or another doubt; inactive = no such curve, though single readings can be large or run the other way. Potencies of inconclusive entries are left out as doubtful fits.

Biological target: Lysosomal alpha-glucosidase (Homo sapiens) (UniProt P10253)
Experiment: qHTS Assay for Inhibitors of Human alpha-Glucosidase as a Potential Chaperone Treatment of Pompe Disease;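 for activity change, negative = inhibition: plate controls were uninhibited enzyme wells for no effect and no-enzyme background for full effect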
Settings: purified human GAA, 4-MU-alpha-glucoside fluorescence; activity change, negative = inhibition: at 76.9 µM (top of the series) unless noted
How it was run: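 Human alpha-glucosidase, 4 nM, pre-mixed with test compounds before 400 uM 4-methylumbelliferyl substrate; 20 min room temperature at pH 5.0. Fluorescence read after pH 10 stop; AC50 values from Hill-equation fits.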
Potency is the fitted concentration of half-maximal effect; tags give direction and shape of the fitted curve.

Compound	Potency	activity change, negative = inhibition
O=C(NN1CCOCC1)c1cc(-c2cccs2)nc2ccccc12	inconclusive [activator, single point]	–
COc1ccc(N2CCN(CC(=O)NCc3ccccc3)CC2)cc1	–	inconclusive: 15.1% [activator]
Cc1cccc(N2CCN(C(=O)c3c(C)nn(Cc4ccccc4Cl)c3C)CC2)c1C	inconclusive [activator, single point]	–
O=C(CSc1cccc(C(F)(F)F)c1)NC(=O)c1ccccc1	inconclusive [inhibitor, single point]	–
CCCCC(=NCCO)C1=C(O)C(C(=O)OC)C(C)(C)CC1=O (stereo unspecified)	inactive	–
CNc1nc(Oc2ccc(C(=O)OC)cc2)nc(SC)n1	inconclusive [inhibitor, single point]	–
CC(=O)NC1C(Oc2ccccc2C)OC(CO)C(O)C1O (stereo unspecified)	–	inconclusive: 16.4% [activator]
O=C(c1ccccc1F)N1C(=O)c2cccc3cccc1c23	inconclusive [activator, single point]	–
C=CCC1CCCCC12NC(=O)NC2=O (stereo unspecified)	inconclusive [inhibitor, partial curve, poor fit]	–
CCOC(=O)c1ccccc1NC(=O)CSc1nc(N)cc(N)n1	inconclusive [inhibitor, single point]	–
Cn1c(C(=O)NCc2ccccc2)cc2oc3ccccc3c21	inconclusive [inhibitor, single point]	–
O=Cc1ccc(-c2ccccc2C(=O)O)o1	–	inconclusive: 8.55% [activator]
Cc1onc(-c2ccccc2)c1C(=O)Nc1sc2c(c1C#N)CCC2	inconclusive [inhibitor, single point]	–
COc1ccccc1-c1nnc(SCC(=O)c2ccc(C3CCCCC3)cc2)n1Cc1ccco1	–	inconclusive: -17.7% [inhibitor]
c1ccc2c(c1)COC(CN1CCCCC1)OC2	–	inconclusive: 17.2% [activator]
CCN(CC)CCCNc1nnc(C)c(=O)[nH]1	inconclusive [inhibitor, partial curve]	–
Cn1c(SCC(=O)N2CCN(S(=O)(=O)c3ccccc3)CC2)nc2ccccc21	inconclusive [inhibitor, partial curve]	–
NCc1c(O)ccc2ccccc12	inconclusive [activator, partial curve]	–
COc1ccc(C(=O)O)cc1S(=O)(=O)Nc1ccc(C)cc1	inconclusive [inhibitor, single point]	–
CCCc1nc2ccccc2c(=O)n1/N=C/c1ccc(O)c(O)c1	–	inconclusive: -17.7% [inhibitor]
Nc1nc2ccc(C(=O)NCCOC(=O)C3CCCCC3)cc2s1	–	inconclusive: 7.47% [activator]
O=C(Cc1ccccc1)c1ccc2c(c1)OCCO2	–	inconclusive: 15.1% [activator]

Compound	Potency	activity change, negative = inhibition
Cc1ccc(C(=O)NNC(=O)c2ccc(C)cc2)cc1	inconclusive [inhibitor, single point]	–
CCC(=O)Nc1ccc(NC(=O)CSc2nnnn2C(C)C)cc1	inconclusive [inhibitor, single point]	–
Cc1ccc(C(=O)COC(=O)C2C3C=CC(C3)C2C(=O)OCC(=O)c2ccc(C)c(C)c2)cc1C (stereo unspecified)	–	inconclusive: -15.8% [inhibitor]
C=CCn1c(SC(C)C(=O)NC2(C#N)CCCCC2)nnc1-c1ccc(OC)cc1 (stereo unspecified)	inconclusive [inhibitor, full curve, poor fit]	–
C=CC(=O)NC(C)(C)CCN1CCOCC1	–	inconclusive: 19.3% [activator]
CCCCNC(=O)Nc1c(C(=O)OCC)[nH]c2ccccc12	inconclusive [inhibitor, partial curve]	–
COc1ccccc1-c1nnc(SC(C(=O)c2c[nH]c3ccccc23)c2ccccc2)n1C (stereo unspecified)	inconclusive [inhibitor, partial curve, poor fit]	–
COc1cc(/C=C/C(=O)OCC(=O)NC2CCS(=O)(=O)C2)ccc1O (stereo unspecified)	–	inconclusive: -15% [inhibitor]
COC(=O)c1c(NC(=O)c2ccccc2)sc(C(N)=O)c1C	–	inconclusive: 17% [activator]
COc1cc2c(cc1NC(=O)COC(=O)[C@@H](NS(=O)(=O)c1ccccc1)C(C)C)oc1ccccc12	inconclusive [inhibitor, single point]	–
Cc1ccc2c(c1)cc(CN(Cc1cccnc1)C(=O)NCc1ccccc1)c1nnnn12	inconclusive [activator, partial curve]	–
Cc1ccc2nc(SCC(=O)c3ccc4c(c3)OCO4)[nH]c2c1	–	inconclusive: -16.6% [inhibitor]
CCOC(=O)c1ccc(NC(=O)CN(C)S(=O)(=O)c2ccc(Br)s2)cc1	inconclusive [inhibitor, full curve, poor fit]	–
COc1cc(CN(C2CCCCC2C)S(=O)(=O)c2ccc(S(=O)(=O)NC3CC3)cc2)cc(OC)c1OC (stereo unspecified)	–	inconclusive: -15.5% [inhibitor]
Cc1csc(SCC(=O)N2CCN(S(=O)(=O)c3ccccc3)CC2)n1	inconclusive [inhibitor, single point]	–
O=C(c1c[nH]c(C(=O)C(Cl)(Cl)Cl)c1)c1ccc(F)cc1Cl	inconclusive [inhibitor, full curve, poor fit]	–
CCc1nnc(N/N=C/c2ccc(-c3ccc([N+](=O)[O-])cc3)o2)n1N	inconclusive [inhibitor, single point]	–
O=C(O)c1cccc(NC(=S)N/N=C/c2ccccc2OCc2ccc(Br)cc2)c1	inconclusive [inhibitor, single point]	–
Cc1ccc2nc(NCC(N)=O)nc(-c3ccccc3)c2c1	inconclusive [activator, partial curve]	–
Cc1cccc(N/C=C/C(=C(C#N)C#N)N(C)C)c1	inactive	–
Cn1c(=O)c2c(nc(SCCCO)n2Cc2ccccc2Cl)n(C)c1=O	inconclusive [inhibitor, single point]	–
CCOC(=O)c1sc(-c2ccc(OC)cc2)cc1NC(C)=O	inconclusive [activator, partial curve]	–

Compound	Potency	activity change, negative = inhibition
COc1ccc(Nc2nc(N3CCCCC3)nc3ccccc23)c(OC)c1	inconclusive [inhibitor, partial curve]	–
O=C(c1ccc(C(F)(F)F)cc1)C1CCCN(C(=O)CN2C(=O)CSC2=O)C1 (stereo unspecified)	inconclusive [inhibitor, partial curve]	–
COc1ccc(Cl)cc1N(C(C)C(=O)NC1CCCC1)S(C)(=O)=O (stereo unspecified)	inactive	–
O=S(=O)(c1ccc(Cl)cc1)n1c(Cc2ccccc2)nc2ccccc21	inconclusive [inhibitor, partial curve, poor fit]	–
COc1ccc(-c2cc(-c3nnc(COC(=O)CC4CCCC4)o3)c3ccccc3n2)cc1OC	inconclusive [inhibitor, single point]	–
O=c1cc(N2CCN(c3ccc(F)cc3)CC2)[nH]c(=O)n1Cc1ccc(F)cc1	inconclusive [inhibitor, partial curve, poor fit]	–
O=C(Nc1cccc(S(=O)(=O)N2CCCCC2)c1)c1ccc([N+](=O)[O-])o1	inconclusive [inhibitor, partial curve]	–
Cc1cc(NC(=O)CSc2nnc(C)c(=O)n2N)no1	inconclusive [inhibitor, single point]	–
COc1cccc(NC(=O)COC(=O)c2ccc(F)cc2F)c1	inconclusive [inhibitor, full curve, poor fit]	–
CCOC(=O)CSc1nnc(-c2cc(OC)c(OC)c(OC)c2)o1	inactive	–
CC1(C)CC2(CCO1)OC(=O)CC2C(=O)NCCc1ccccc1 (stereo unspecified)	–	inconclusive: -15.5% [inhibitor]
NC(=O)C1CCCN(Cc2ccc(Cl)cc2)C1 (stereo unspecified)	inconclusive [inhibitor, single point]	–
COc1ccc(N(CC(=O)Nc2ccc3c(c2)OCCO3)S(=O)(=O)c2c(C)noc2C)cc1	inconclusive [inhibitor, single point]	–
Cc1ccc(/C=c2/sc3nnc(-c4ccccc4Cl)n3c2=O)o1	inconclusive [inhibitor, partial curve]	–
CN(C)c1ccc(C(=S)N2CCCCCC2)cc1	inconclusive [inhibitor, single point]	–
COc1ccccc1/C=C\C=N\n1c(-c2ccc(Cl)cc2Cl)n[nH]c1=S	inconclusive [inhibitor, partial curve]	–
COc1ccc(C2C3=C(CCCC3=O)Nc3nc(C(F)(F)F)nn32)cc1OC (stereo unspecified)	inconclusive [activator, partial curve]	–
O=C(Nc1ncn[nH]1)c1c(Cl)ccc(Cl)c1Cl	inconclusive [inhibitor, full curve, poor fit]	–
Cc1cc(C(F)(F)F)c(C#N)c(=O)[nH]1	inconclusive [activator, partial curve]	–
CC1=C(C)/C(=N\OS(=O)(=O)c2ccccc2)C=CC1=O	–	inconclusive: 21.8% [activator]
CCCS(=O)(=O)n1nc(-c2ccc(C)cc2)cc1N	–	inconclusive: 15.7% [activator]
Cc1ccc(S(=O)(=O)Nc2cccc(Cl)c2)cc1NC(=O)c1cccnc1	inconclusive [inhibitor, single point]	–
